Numbering of substitutions follows the chain as printed.

To fix the notation:
B1: 1618LO11-1210 (bispecific antibody, human IgG1, kappa)
heavy: EVQLLESGGGLVQPGGSLRLSCAASGFTFDYGSMYWVRQAPGKGLEWVSSISSGSGSTYYADSVKGRFTISRDNSKNTLYLQMNSLRAEDTAVYYCARSSYYGSYYSIDYWGQGTLVTVSS[no letters for human IgG1 constant region with changes]GGGGSGGGGS[no letters for about 100 residues]YYGGYYSAWMDYWGQGTLVTVSSGGGGSGGGGSGGGGSDIQMTQSPSSLSASVGDRVTITCRASQSISSYLNWYQQKPGKAPKLLIYAASSLQSGVPSRFSGSGSGTDFTLTISSLQPEDFATYYCQQTYGYLHTFGQGTKLEIK
light: DIQMTQSPSSLSASVGDRVTITCRASQSISSYLNWYQQKPGKAPKLLIYAASSLHSGVPSRFSGSGSGTDFTLTISSLQPEDFATYYCQQYYDNLPTFGQGTKLEIKRTVAAPSVFIFPPSDEQLKSGTASVVCLLNNFYPREAKVQWKVDNALQSGNSQESVTEQDSKDSTYSLSSTLTLSKADYEKHKVYACEVTHQGLSSPVTKSFNRGEC
B2: 1210-1618.m2.m16 (bispecific antibody, human IgG1, kappa)
heavy: [no letters for about 100 residues]YYGGYYSAWMDYWGQGTLVTVSS[no letters for human IgG1 constant region with changes]GGGGSEVQLLESGGGLVQPGGSLRLSCAASGFTFSYGSMYWVRQAPGKGLEWVSSISSGSGSTYYADSVKGRFTISRDNSKNTLYLQMNSLRAEDTAVYYCARSSYYGSYYSIDYWGQGTLVTVSSGGGGSGGGGSGGGGSDIQMTQSPSSLSASVGDRVTITCRASQSISSYLNWYQQKPGKAPKLLIYAASSLQSGVPSRFSGSGSGTDFTLTISSLQPEDFATYYCQQYYDNLPTFGQGTKLEIK
light: B1 light with H55Q, Y91T, D93G, N94Y, P96H
B3: 1210-1618.m2.m7.m15 (bispecific antibody, human IgG1, kappa)
heavy: [no letters for about 100 residues]YYGGYYSAWMDYWGQGTLVTVSS[no letters for human IgG1 constant region with changes]THTCPPCPEPKSSDKDIQMTQSPSSLSASVGDRVTITCRASQSISSYLNWYQQKPGKAPKLLIYAASSLQSGVPSRFSGSGSGTDFTLTISSLQPEDFATYYCQQYYDNLPTFGQGTKLEIKGGGGSGGGGSGGGGSEVQLLESGGGLVQPGGSLRLSCAASGFTFSYGSMYWVRQAPGKGLEWVSSISSGSGSTYYADSVKGRFTISRDNSKNTLYLQMNSLRAEDTAVYYCARSSYYGSYYSIDYWGQGTLVTVSS
light: B1 light with H55Q, Y91T, D93G, N94Y, P96H
notes: scFv in VL-VH order
B4: 1210-1618.m2.m15 (bispecific antibody, human IgG1, kappa)
heavy: [no letters for about 100 residues]YYGGYYSAWMDYWGQGTLVTVSS[no letters for human IgG1 constant region with changes]THTCPPCPEPKSSDKEVQLLESGGGLVQPGGSLRLSCAASGFTFSYGSMYWVRQAPGKGLEWVSSISSGSGSTYYADSVKGRFTISRDNSKNTLYLQMNSLRAEDTAVYYCARSSYYGSYYSIDYWGQGTLVTVSSGGGGSGGGGSGGGGSDIQMTQSPSSLSASVGDRVTITCRASQSISSYLNWYQQKPGKAPKLLIYAASSLQSGVPSRFSGSGSGTDFTLTISSLQPEDFATYYCQQYYDNLPTFGQGTKLEIK
light: B1 light with H55Q, Y91T, D93G, N94Y, P96H
B5: 1618LO11-1210LO2 (bispecific antibody, human IgG1, kappa)
heavy: EVQLLESGGGLVQPGGSLRLSCAASGFTFDYGSMYWVRQAPGKGLEWVSSISSGSGSTYYADSVKGRFTISRDNSKNTLYLQMNSLRAEDTAVYYCARSSYYGSYYSIDYWGQGTLVTVSS[no letters for human IgG1 constant region with changes]GGGGSGGGGSEVQLLESGGGLVQPGGSLRLSCAASGFDFDSYAMSWVRQAPGKGLEWVSAISGRGGSTYYADSVKGRFTISRDNSKNTLYLQMNSLRAEDTAVYYCARYYGGYYSAWMDYWGQGTLVTVSSGGGGSGGGGSGGGGSDIQMTQSPSSLSASVGDRVTITCRASQSIRSALNWYQQKPGKAPKLLIYAASSLQSGVPSRFSGSGSGTDFTLTISSLQPEDFATYYCQQTYGYLHTFGQGTKLEIK
light: B1 light

In the assay the target is T1, CD137-bio (Ancell #502-030) (human, UniProt Q07011 24-186, biotinylated).
T1 construct: detection reagent of the dual ELISA
T1 sequence (Q07011 24-186 limits assumed): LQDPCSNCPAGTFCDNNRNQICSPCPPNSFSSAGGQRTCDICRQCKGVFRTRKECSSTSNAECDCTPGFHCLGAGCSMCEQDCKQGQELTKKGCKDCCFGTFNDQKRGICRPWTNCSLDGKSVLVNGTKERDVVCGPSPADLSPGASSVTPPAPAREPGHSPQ
Kind of assay: dual ELISA: coated 5T4-Fc, detection with CD137-bio. The protocol: Bispecific binding to both targets, CD137 and 5T4, was evaluated using a standard ELISA protocol. Plates (#655074, Greiner Bio-One GmbH, Germany) were pre-coated with 0.5 μg/ml 5T4-Fc (obtained from Professor Peter Stern, University of Manchester) overnight. CD137-5T4 bsAb were diluted from 8 to 2×10⁻³ μg/ml in 1:4 dilutions and added in duplicates of 50 μl to each well. CD137-bio (Ancell #502-030) was used as detection antibody at 0.5 μg/ml and the binding was detected with Streptavidin-HRP (Pierce #21126). The ELISA was developed with SuperSignal ELISA PICO Chemiluminescent substrate (Thermo Scientific Pierce, Rockford, Ill. USA) during 2-10 minutes and read in an automated microplate based multi-detection reader (FLUOstar OPTIMA, Netherlands).
On the technique in general: ELISA stands for enzyme-linked immunosorbent assay.
For B1, the binding result is given as “binds”.

Regarding B2, the binding result is “binds”. Regarding B3, the binding result was “binds”.

Take B4: the binding result is given as “binds”. For the molecule B5, the binding result is reported as “binds”.
